Ten molecules from patent US20250270274A1 (SERPENTIDE, published 2025) can be followed below.

What is called EC50 is the concentration that produces a half-maximal response. A low value points to an effect from little substance.

B1: P70-hIg1Fc (Fc fusion)
chain: EVQLVESGGGLVQAGGSLRLSCVASGRTFGNYRMAWFRQAPGKEREFVAVISRNGGITTYADSAKGRFTLSRDNAKNAVYLQMNSLKPEDTAVYYCTGGRNLGTWDYWGQGTQVTVSS[human IgG1 Fc with changes not given here]
notes: Alpaca nanobody raised against SP01, fused to human IgG1 Fc; also called P70-hIgG1Fc
B2: P66-hIg1Fc (Fc fusion)
chain: EVQVQESGGGLVQAGGSLRLSCAASGRSFRSDRMGWFRQAPGKEREFVAVISRGGGVTTYADSVKGRFTVSRDDAKNTVDLQMNSLKPEDTAVYYCAAGITTKAANYWGMGTQVTVSS[human IgG1 Fc with changes not given here]
notes: Alpaca nanobody raised against SP01, fused to human IgG1 Fc; also called P66-hIgG1Fc
B3: P62-hIg1Fc (Fc fusion)
chain: QVQLVETGGGLVQAGGSLRLSCAASGRTFSSYRMGWFRQAPGKEREFVAVISRSGDVTTYAHSVKGRFTVSRDNAKNTVYLQMNSLKPEDTAVYYCAAGLAANTANYWGQGTQVTVSS[human IgG1 Fc with changes not given here]
notes: Alpaca nanobody raised against SP01, fused to human IgG1 Fc; also called P62-hIgG1Fc
B4: P71-hIg1Fc (Fc fusion)
chain: QVQLVESGGGLVQAGGSLRLSCVASGRTFSSGRMAWFRQAPGKEREFVAVISQNGGVTTYAASVKGRFTVSRDNAKNTVYLQMNSLKPEDTAVYYCAAGVTTNTANYWGQGTRVTVSS[human IgG1 Fc with changes not given here]
notes: Alpaca nanobody raised against SP01, fused to human IgG1 Fc; also called P71-hIgG1Fc
B5: P67-hIg1Fc (Fc fusion)
chain: QVQLVESGGGLVQPGGSLRLSCAASGSVFSRNFMGWYRQAPGKQRELVAYITVDGGTRYADSVKGRFTISRDNAKNTVYLQMNSLKPEDTAVYYCNRAGTTPYAWGQGTLVTVSS[human IgG1 Fc with changes not given here]
notes: Alpaca nanobody raised against SP01, fused to human IgG1 Fc; also called P67-hIgG1Fc
B6: P68-hIg1Fc (Fc fusion)
chain: QVRLVESGGGLVQAGGSLRLSCTASGRTFSSYSVGWFRQAPGKERAFVAVISKSGGITTYADSVKGRFIISRDNAKNTVYLQMNSLKPEDTAVYYCAASGSSLRLADSGSWGQGTQVTVSS[human IgG1 Fc with changes not given here]
notes: Alpaca nanobody raised against SP01, fused to human IgG1 Fc; also called P68-hIgG1Fc
B7: P73-hIg1Fc (Fc fusion)
chain: QVQLVESGGGLVQPGGSLRLSCVASGNIFSSSIMGWYRQAPGKQREAVAFITNGGSTDYADSVKGRFTISRDNAKNTTYLQMNSLKFEDTAVYYCNLRNQRNFQEGSLGQGTQVTVSS[human IgG1 Fc with changes not given here]
notes: Alpaca nanobody raised against SP01, fused to human IgG1 Fc; also called P73-hIgG1Fc
B8: P65-hIg1Fc (Fc fusion)
chain: QVQLVESGGGLVQPGGSLRLSCAASGSIFAINVMGWYRQASGNQRELVAGITTGGARDYADSVKGRFTISRDNAKNTVYLSMNSLKPEDTAVYYCNLHAPKYIDSRYDYWGQGTQVTVSS[human IgG1 Fc with changes not given here]
notes: Alpaca nanobody raised against SP01, fused to human IgG1 Fc; also called P65-hIgG1Fc
B9: P64-hIg1Fc (Fc fusion)
chain: EVQLQESGGGLVQAGGSLRLSCAASGSISSLNGIWYRQAPGKQREVVAGITSGGSTNYADSVKGRFTISRDNAKNTVYLQMNGLKPEDTAIYYCNTVRNWDIRTALSRSGGQGTQVTVSS[human IgG1 Fc with changes not given here]
notes: Alpaca nanobody raised against SP01, fused to human IgG1 Fc; also called P64-hIgG1Fc
B10: P72-hIg1Fc (Fc fusion)
chain: EVQLQESGGGLVQAGGSLRLSCVVSGRTFGSLRMAWFRQAPGKEREFVSIISKSGGITTYADSVKGRFTISRDNAKNTVYLQMNSLKPEDTAVYYCAADASIRPRTNPSDYDGWGQGTQVTVSS[human IgG1 Fc with changes not given here]
notes: Alpaca nanobody raised against SP01, fused to human IgG1 Fc; also called P72-hIgG1Fc

This experiment has as its target dulaglutide (TRULICITY brand). The experiment in a line: ELISA, nanobody-hIgG1Fc on dulaglutide.
Molecule B1 registered an EC50 of 0.00356 µg/mL.

The molecule B2 gave a half-maximal effective concentration (EC50) of 0.0193 µg/mL. For the molecule B3, the response was half-maximal at 0.0187 µg/mL (EC50). Then B4, with 0.036 µg/mL; and B5, with 0.0373 µg/mL; and B6, with 0.0182 µg/mL.

B7: the midpoint of the response, the EC50, lay at 0.0331 µg/mL. The same measure for B8: 0.15 µg/mL; for B9: 0.073 µg/mL; for B10: 0.0156 µg/mL.
